Screen size: about 45,000 compounds; about 65 (0.1%) were called active. The call rests on the fitted dose curve; in most records, active means well fitted activation curve with a large enough effect; inconclusive means small, poorly fitted or top-dose-only effect; inactive means no such curve, though single readings can be large or run the other way. This is one part of the list.
Molecular target: Galactocerebrosidase (Homo sapiens) (UniProt P54803)
Test: A Novel Cell-Based Assay to Identify Small Molecules for B -Galactocerebrosidase; further: 0% is about no effect; nearly all actives have a fitted effect of over 65% in size
Settings: 145M-Twi-hGALC-G270D cells (Twitcher mouse brain line with human GALC G270D), HMU-beta-Gal fluorescence, 48 h; series mostly up to 57.5 µM; activation: at the top concentration
How it was run: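 Live 145M-Twi cells (Twitcher mouse brain-derived, GALC-null) stably expressing human GALC-G270D, with a wild-type GALC line, were compound-treated. Residual GALC activity was then read as fluorescence from 0.1 mM final HMU-β-gal at pH 5.2; higher signal means activation.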

Chain of UniProt P54803 (P54803 whole entry, looked up): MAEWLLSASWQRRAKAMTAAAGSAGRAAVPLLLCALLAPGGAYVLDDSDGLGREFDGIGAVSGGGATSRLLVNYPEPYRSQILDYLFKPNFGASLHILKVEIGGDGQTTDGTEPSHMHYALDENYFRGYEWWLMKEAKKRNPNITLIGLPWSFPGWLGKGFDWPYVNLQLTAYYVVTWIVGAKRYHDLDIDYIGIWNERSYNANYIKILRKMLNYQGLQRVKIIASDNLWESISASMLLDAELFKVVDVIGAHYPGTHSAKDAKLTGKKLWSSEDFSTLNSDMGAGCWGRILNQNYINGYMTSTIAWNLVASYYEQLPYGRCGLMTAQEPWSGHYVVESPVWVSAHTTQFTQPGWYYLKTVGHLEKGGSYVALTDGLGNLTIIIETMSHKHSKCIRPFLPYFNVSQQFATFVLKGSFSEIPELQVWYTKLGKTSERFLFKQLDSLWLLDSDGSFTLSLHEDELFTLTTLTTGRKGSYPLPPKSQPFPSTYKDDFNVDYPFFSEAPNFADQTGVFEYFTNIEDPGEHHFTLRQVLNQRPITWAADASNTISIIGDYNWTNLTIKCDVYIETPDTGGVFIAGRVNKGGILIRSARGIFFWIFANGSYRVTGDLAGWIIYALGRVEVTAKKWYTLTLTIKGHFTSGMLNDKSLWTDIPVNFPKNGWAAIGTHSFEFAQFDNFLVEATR

activation, inactive:
COc1ccc(CNC(=O)C2CCN(S(=O)(=O)c3cccc(-c4noc(C)n4)c3)CC2)cc1 -9.24%
Cc1cccc(Nc2nc(-c3ccccc3)nc3ccccc23)c1 -1.99%
O=C(COCc1cc(-c2ccc(F)cc2)on1)Nc1cccc(C(F)(F)F)c1 -13.8%
CCCOc1ccc(C2C(=O)N(C3CCCCC3)CC(=O)N2C2CCCCC2)cc1OC (stereo unspecified) -10.8%
COc1ccc(Cn2c(CO)cnc2SCc2ccccc2)cc1 -10.1%
Cc1ccc(-n2c(=O)c3c(C)c(C(=O)N(C)C)sc3n(Cc3ccccc3C)c2=O)cc1C -12%
COc1ccc(-c2cn3c(n2)sc2cc(C(=O)NCCCN4CCN(C)CC4)ccc23)cc1 -2.94%
O=C(NCc1ccccc1Cl)C1=Cc2cc(Br)ccc2OC1 -18.5%
CCCCCn1c(CCCNC(=O)c2ccccc2OC)nc2ccccc21 -13.5%
COc1ccccc1-c1nn(CCC(=O)Nc2ccc(C)cc2)c2nc(C)cc(C)c12 -11.3%
CCN1CCN(CCCNC(=O)Cn2nc(C)n3c(cc4c(OC)cccc43)c2=O)CC1 -13.5%
Cc1ccccc1NC(=O)CSc1ccc(-c2ccccn2)nn1 -6.3%
COc1cc2c(cc1OC)CN(C(=O)[C@H](C)N[C@@H](CCc1ccccc1)C(=O)O)[C@H](C(=O)O)C2 -5.28%
CC1=C(C(N)=O)C(c2ccc(C)cc2)n2nc(SCc3ccccc3)nc2N1 (stereo unspecified) 6.08%
CCOc1ccc(NC(=O)CC2C(=O)N(c3ccc(OC)cc3)C(=O)N2CCC2=CCCCC2)cc1 (stereo unspecified) -14.9%
COc1cccc(N2CCN(C(=O)c3ccc4nc(N5CCC(C)CC5)sc4c3)CC2)c1 -8.24%
CCOC(=O)c1cnc2ccc(C(=O)OC)cc2c1Nc1ccc(OCc2ccccc2Cl)cc1 18%
CCN(CC)C(=O)Cn1ncc2c([nH]c3ccccc32)c1=O -9.6%
CC(=O)Nc1cccc(-c2nnc(SCC(=O)c3cc([N+](=O)[O-])ccc3Cl)o2)c1 -8.03%
Cc1oc2c(c1C(=O)NCc1ccccc1F)C1=NCCN1C=N2 -8.89%
O=C(NCC(c1ccc2c(c1)OCO2)N1CCN(c2ccccc2)CC1)C(=O)Nc1ccccc1F (stereo unspecified) -23%
CCOC(=O)NNC(=O)C1CCC(C)CC1 (stereo unspecified) -8.51%
CC(C)Oc1ccc(CNC(=O)c2cnc3sc(N4CCCC4)nn3c2=O)cc1 -2.07%
O=C(O)c1cc(-c2ccccc2)nn1Cc1ccccc1 -5.53%
Cc1ccc(-c2nnc3ccccc3c2C(=O)Nc2ccc(F)cc2)cc1 -4.22%
COc1ccc(C(C)=O)cc1CSc1nc(Nc2ccc(F)c(F)c2)c2ccccc2n1 -0.245%
Cc1ccc(N2CCN(c3nc4ccc(C(=O)c5ccccc5)cc4n4cnnc34)CC2)c(C)c1 -18.3%
COc1ccccc1Nc1nn2c(=O)c3ccc(C(=O)NCCc4ccccc4)cc3nc2s1 -24.3%
COc1ccc(C)cc1NC(=O)N(C(C)C)C1CCN(C(C)=O)CC1 -7.07%
CC(=O)Nc1ccc(NC(=O)c2ccc3c(c2)CCN3S(=O)(=O)c2ccc(C)cc2)cc1 -17.7%
Cc1cc(C)cc(NC(=O)C(=O)NCCc2sc(-c3cccc(F)c3)nc2C)c1 -13.1%
Cc1ccn2c(Nc3ccccc3)c(-c3c[nH]c4ccccc34)nc2c1 -13.1%
O=C(CSc1n[nH]c(-c2ccccc2)n1)N1CCN(c2ccc(F)cc2)CC1 -5.01%
CCOC(=O)c1[nH]c2ccccc2c1NC(=O)c1ccc(C)c(C)c1 -13.3%
Cc1noc(Cn2c(=O)c3ccccc3n(CC(=O)Nc3cc(Cl)ccc3C)c2=O)n1 -9.4%
O=C(CCn1cnc2onc(-c3ccc(F)cc3)c2c1=O)Nc1cccc(C(F)(F)F)c1 -10.1%
Cc1ccc(-c2nnc(Nc3ccc(OCC(N)=O)cc3)c3ccccc23)cc1S(=O)(=O)NCC1CCCO1 (stereo unspecified) -12.5%
Cc1ccc(CSc2nc3ccccc3c3nc(CCn4c(C)nc5ccccc54)nn23)cc1 -7.58%
CCc1ccccc1NC(=O)CCn1cccn1 -35.1%
Cc1ccc(C)c(N2CCN(CCCNC(=O)c3cnn(-c4cccc(Cl)c4)c3C3CCN(C(=O)OC(C)(C)C)CC3)CC2)c1 -19.9%
Cc1cc(C)cc(NC(=O)C(C)N2Cc3ccccc3C2=O)c1 (stereo unspecified) -0.252%
CCOc1ccc(NC(=O)c2ccc3c(=O)n4c(nc3c2)CCCCC4)cc1 -3.27%
CCOc1ccccc1NC(=O)CN1C(=O)CC(c2ccc(C)c(C)c2)=Nc2ccccc21 -14.1%
Cc1ccc(-n2c(=O)c3c(cnn3C)n(CC(=O)Nc3cccc(Cl)c3)c2=O)cc1 1.36%
O=C(O)C(S)C(S)C(=O)O (stereo unspecified) -7.6%
Cc1ccc(CNC(=O)C2CCN(C(=O)N3CC(C)Oc4ccc(Cl)cc43)CC2)cc1 (stereo unspecified) -14%
CCC(C(=O)NCCc1ccc(OC)c(OC)c1OC)n1nc(C)c2sc3ccccc3c2c1=O (stereo unspecified) 0.879%
CC1CCN(S(=O)(=O)c2ccc3c(c2)N(C)C(=O)CC(=O)N3C)CC1 -13.5%
CCc1ccc(CNC(=O)CN2C(=O)C3CCCCN3c3ccc(C(=O)N4CCCC4)cc32)cc1 (stereo unspecified) -1.54%
CC(C)Oc1ccc(CNC(=O)C(C)n2ccc3cc(S(=O)(=O)N4CCCCCC4)ccc32)cc1 (stereo unspecified) -17.1%
COc1cccc(NC(=O)C(C)n2c(=O)cc(C(F)(F)F)c3c(C)nn(C)c32)c1 (stereo unspecified) -23.2%
Cc1ccc(-c2nnc(SCc3ccccc3)o2)cc1 -24.2%
CCCNC(=O)CN1C(=O)COc2ccc(S(=O)(=O)N3CCCCCC3)cc21 -12.7%
CCN(CC)C(=O)Cn1c(SCC(=O)Nc2ccc(F)cc2)nc2ccccc21 -7.68%
CCc1ccccc1NC(=O)Cn1c(=O)n(C(C)C)c(=O)c2oc3ccccc3c21 -8.7%
COc1ccccc1NC(=O)c1cc2c(-c3ccccc3)nn(-c3ccccc3)c2s1 -4.18%
CCOc1ccccc1NC(=O)Cn1c(=O)nc(-c2ccccc2F)c2cc(Cl)ccc21 -5.03%
COc1ccc(OCc2nc3ccccc3n2Cc2ccc(C(C)(C)C)cc2)cc1 -11.3%
COc1cccc(NC(=O)C2CCCN(c3ncnc4onc(C)c34)C2)c1 (stereo unspecified) -1.37%
O=C(Cc1ccc(-c2ccccc2)cc1)NCCS(=O)(=O)N1CCN(c2ccccc2F)CC1 -1.56%
CCC1=C(C)CN(C(=O)NCCc2ccc(S(=O)(=O)NC(=O)NC3CCC(C)CC3)cc2)C1=O (stereo unspecified) -11.8%
CCCCCOc1ccc(/C=C/C(=O)Nc2sc3c(c2C(=O)OCC)CCC3)cc1OC -15.4%
CCCCOc1cccc(C2c3c(-c4cc(C)ccc4O)n[nH]c3C(=O)N2CCOC)c1 (stereo unspecified) -16.3%
COc1ccc(NC(=O)CNC(=O)Cn2ccc3ccccc3c2=O)cc1OC -4.6%
CCc1ccc(NC(=O)c2cc(=O)c3ccc(C)c(C)c3o2)cc1 -9.82%
O=C(Nc1ccccc1C(=O)N1CCCCC1)c1nsc2ccccc12 -12.6%
CN1CCN(c2cc3c(nn2)Oc2ccccc2N3C)CC1 -10.2% [at 23.8 µM]
Cc1cccc(N2CCN(CCCNc3ncnc4onc(-c5ccc(F)cc5)c34)CC2C)c1 (stereo unspecified) -8.4%
O=C(Nc1ccc(F)c(F)c1)c1cc(S(=O)(=O)NC2CCCC2)ccc1F -34%
CCC(C)NC(=O)Cn1ccc2cc(S(=O)(=O)N3CCCCCC3)ccc21 (stereo unspecified) 3.11%
CCc1ccc2oc(-c3cc(NC(=O)c4cccs4)ccc3Cl)nc2c1 -6.99%
COc1cccc(C(=O)Nc2ccc3nc(SCCOc4ccccc4)sc3c2)c1 -9.4%
O=C(CCNS(=O)(=O)c1ccc2c(c1)CCN2C(=O)C1CC1)Nc1ccc(OC(F)(F)F)cc1 -33.9%
CCOC(=O)c1ccc(NC(=O)C2=C(C)C(=O)OC23CCN(C(C)C)CC3)cc1 -12.9%
Cc1ccc2c(=O)cc(C(=O)Nc3sc4c(c3C(=O)NCc3cccnc3)CCCC4)oc2c1 -18.9%
Cc1ccc(CCNC(=O)c2ccc3c(c2)N(Cc2cccc(F)c2)C(=O)c2ccccc2S3)cc1 -12.7%
COc1cccc2cc(C(=O)Nc3ccc(C)cc3)c(=O)oc12 -14.1%
CCOc1ccc(N(CC)C(=O)Cn2cnc3sc(C)c(S(=O)(=O)N4CCN(c5ncccn5)CC4)c3c2=O)cc1 -4.53%
Cc1cc(NS(=O)(=O)c2ccc(NC(=O)COc3cc(C)c(Br)cc3C(C)C)cc2)no1 -8.09%
CC(C)CCNC(=O)c1ccc2nc(Cc3ccccc3)oc2c1 -12.4%
COc1ccc(-c2cc(C(F)(F)F)nc(SCC(=O)NC(C)c3ccccc3)n2)cc1 (stereo unspecified) -30.6%
CCn1cc(S(=O)(=O)c2ccccc2)c(=O)c2cc(F)c(F)cc21 10.2%
Cc1ccc(CN(C(=O)COc2ccc(F)cc2)C2CCS(=O)(=O)C2)o1 (stereo unspecified) -17%
Cc1ccc(-n2ncc(C(=O)NCCN3CCC(Cc4ccccc4)CC3)c2C2CCN(C(=O)OC(C)(C)C)CC2)cc1 3.54%
O=C(NCC(c1cccnc1)N1CCc2ccccc21)c1ccc(Cl)cc1 (stereo unspecified) -8.67%
O=C(Nc1c2c(nn1-c1ccc(Cl)cc1)CS(=O)(=O)C2)c1ccc(Br)cc1 -26.4%
Cc1cc(O)c(CN2CCN(c3ccccc3)CC2)c2oc(=O)cc(C)c12 -18.3%
CCOC(=O)c1cc(NC(=O)c2ccc(F)cc2)c(=O)n2c1oc1ccc(Cl)cc12 -5.32%
CCCSCCCNC(=O)Cn1c(-c2cccs2)cc2ccccc21 -10.4%
Cc1ccc(NC(=O)CCCn2nc(C)c3c(C)n(-c4ccccc4)nc3c2=O)c(Cl)c1 -11.4%
CCCN1C(C(=O)c2ccccc2)=C(OC(=O)COc2ccc(C)cc2)c2ccccc2S1(=O)=O -3.65%
COC(=O)CN1C(C(=O)c2ccccc2)=C(OC(=O)c2ccccc2)c2ccccc2S1(=O)=O -15.8%
Cc1ccc(NC(=O)C2CCCN(S(=O)(=O)c3cccs3)C2)c(C)c1 (stereo unspecified) -2.22%
COc1ccc(S(=O)(=O)N(CC(=O)Nc2ccc(Br)cc2)Cc2ccccc2)cc1 -9.95%
Cc1ccc(C(=O)Nc2cnc3ccccn3c2=O)cc1 -28.8%
CCCn1c2ccccc2c2cnn(CC(=O)N3CCCC(C(=O)OCC)C3)c(=O)c21 (stereo unspecified) -8.99%

Source: PubChem BioAssay AID1159614 (National Center for Advancing Translational Sciences (NCATS), 2016)
